# Reference: the supplement of paper PMC8728848
# The list shows a part of the results.
# B1: HHL-1 (Homo sapiens), P07306 (protein)
# chain: TKEYQDLQHLDNEESDHHQLRKGPPPPQPLLQRLCSGPRLLLLSLGLSLLLLVVVCVIGSQNSQLQEELRGLRETFSNFTASTEAQVKGLSTQGGNVGRKMKSLESQLEKQQKDLSEDHSSLLLHVKQFVSDLRSLSCQMAALQGNGSERTCCPVNWVEHERSCYWFSRSGKAWADADNYCRLEDAHLVVVTSWEEQKFVQHHIGPVNTWMGLHDQNGPWKWVDGTDYETGFKNWRPEQPDDWYGHGLGGGEDCAHFTDDGRWNDDVCQRPYRWVCETELDKASQEPPLL
# What was measured:
# Assay in all cases: glycan array binding signal (z-score within array); higher = stronger binding
# Details in all cases: glycan notation: IUPAC condensed, linker removed
# [1] = molecular target: Fuc(a1-3)[Gal(b1-4)]Glc6S
# Procedure, shortened: (§1)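 The binding signal is a Z-score computed within each array and averaged over linkers. Arrays of the same protein sequence at different concentrations or buffers were also averaged together. Data originate from 3228 arrays in the Consortium for Functional Glycomics database, kept only where the protein sequence was available.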
# [2] = molecular target: Fuc(a1-3)[Gal(b1-4)]GlcNAc
# Procedure, shortened: as §1
# [3] = molecular target: Fuc(a1-3)[Gal(b1-4)]GlcNAc(b1-2)Man(a1-3)[Fuc(a1-3)[Gal(b1-4)]GlcNAc(b1-2)Man(a1-6)]Man(b1-4)GlcNAc(b1-4)GlcNAc
# Procedure, shortened: as §1
# [4] = molecular target: Fuc(a1-3)[Gal(b1-4)]GlcNAc(b1-2)Man(a1-6)[Gal(b1-4)GlcNAc(b1-2)Man(a1-3)]Man(b1-4)GlcNAc(b1-4)GlcNAc
# Procedure, shortened: as §1
# [5] = molecular target: Fuc(a1-3)[Gal(b1-4)]GlcNAc(b1-3)Gal(b1-3)[Fuc(a1-4)]GlcNAc
# Procedure, shortened: as §1
# [6] = molecular target: Fuc(a1-3)[Gal(b1-4)]GlcNAc(b1-4)Gal(b1-4)[Fuc(a1-3)]GlcNAc
# Procedure, shortened: as §1
# [7] = molecular target: Fuc(a1-3)[Gal(b1-4)]GlcNAc(b1-4)Gal(b1-4)[Fuc(a1-3)]GlcNAc(b1-4)Gal(b1-4)[Fuc(a1-3)]GlcNAc
# Procedure, shortened: as §1
# [8] = molecular target: Fuc(a1-3)[Gal(b1-4)]GlcNAc6S
# Procedure, shortened: as §1
# [9] = molecular target: Fuc(a1-3)[Gal3S(b1-4)]Glc6S
# Procedure, shortened: as §1
# [10] = molecular target: Fuc(a1-3)[Gal3S(b1-4)]GlcNAc
# Procedure, shortened: as §1
# [11] = molecular target: Fuc(a1-3)[Gal3S(b1-4)]GlcNAc6S
# Procedure, shortened: as §1
# [12] = molecular target: Fuc(a1-3)[GalNAc(b1-4)]GlcNAc
# Procedure, shortened: as §1
# [13] = molecular target: Fuc(a1-3)[Neu5Ac(a2-3)]Gal(b1-4)GlcNAc(b1-3)GalNAc
# Procedure, shortened: as §1
# Fuc(a1-4)GlcNAc = molecular target: Fuc(a1-4)GlcNAc
# Procedure, shortened: as §1
# Fuc(b1-3)GlcNAc = molecular target: Fuc(b1-3)GlcNAc
# Procedure, shortened: as §1
# Gal(a1-2)Gal = molecular target: Gal(a1-2)Gal
# Procedure, shortened: as §1
# Gal(a1-3)Gal = molecular target: Gal(a1-3)Gal
# Procedure, shortened: as §1
# Gal(a1-3)Gal(b1-3)GlcNAc = molecular target: Gal(a1-3)Gal(b1-3)GlcNAc
# Procedure, shortened: as §1
# Gal(a1-3)Gal(b1-4)Glc = molecular target: Gal(a1-3)Gal(b1-4)Glc
# Procedure, shortened: as §1
# Gal(a1-3)Gal(b1-4)GlcNAc = molecular target: Gal(a1-3)Gal(b1-4)GlcNAc
# Procedure, shortened: as §1
# [14] = molecular target: Gal(a1-3)Gal(b1-4)[Fuc(a1-3)]GlcNAc
# Procedure, shortened: as §1
# [15] = molecular target: Gal(a1-3)Gal(b1-4)[Fuc(a1-3)]GlcNAc(b1-2)Man(a1-3)[Gal(a1-3)Gal(b1-4)[Fuc(a1-3)]GlcNAc(b1-2)Man(a1-6)]Man(b1-4)GlcNAc(b1-4)GlcNAc
# Procedure, shortened: as §1
# Gal(a1-3)GalNAc = molecular target: Gal(a1-3)GalNAc
# Procedure, shortened: as §1
# [16] = molecular target: Gal(a1-3)[Gal(a1-4)]Gal(b1-4)GlcNAc
# Procedure, shortened: as §1
# Gal(a1-4)Gal(b1-4)Glc = molecular target: Gal(a1-4)Gal(b1-4)Glc
# Procedure, shortened: as §1
# Gal(a1-4)Gal(b1-4)GlcNAc = molecular target: Gal(a1-4)Gal(b1-4)GlcNAc
# Procedure, shortened: as §1
# [17] = molecular target: Gal(a1-4)Gal(b1-4)GlcNAc(b1-3)Gal(b1-4)Glc
# Procedure, shortened: as §1
# Gal(a1-4)GlcNAc = molecular target: Gal(a1-4)GlcNAc
# Procedure, shortened: as §1
# Gal(a1-6)Glc = molecular target: Gal(a1-6)Glc
# Procedure, shortened: as §1
# Gal(b1-2)Gal = molecular target: Gal(b1-2)Gal
# Procedure, shortened: as §1
# Gal(b1-3)Gal = molecular target: Gal(b1-3)Gal
# Procedure, shortened: as §1
# Gal(b1-3)Gal(b1-4)GlcNAc = molecular target: Gal(b1-3)Gal(b1-4)GlcNAc
# Procedure, shortened: as §1
# [18] = molecular target: Gal(b1-3)Gal(b1-4)GlcNAc(b1-2)Man(a1-3)[Gal(b1-3)Gal(b1-4)GlcNAc(b1-2)Man(a1-6)]Man(b1-4)GlcNAc(b1-4)GlcNAc
# Procedure, shortened: as §1
# Gal(b1-3)GalNAc = molecular target: Gal(b1-3)GalNAc
# Procedure, shortened: as §1
# [19] = molecular target: Gal(b1-3)GalNAc(a1-3)[Fuc(a1-2)]Gal(b1-4)Glc
# Procedure, shortened: as §1
# [20] = molecular target: Gal(b1-3)GalNAc(a1-3)[Fuc(a1-2)]Gal(b1-4)GlcNAc
# Procedure, shortened: as §1
# [21] = molecular target: Gal(b1-3)GalNAc(b1-3)Gal(a1-4)Gal(b1-4)Glc
# Procedure, shortened: as §1
# [22] = molecular target: Gal(b1-3)GalNAc(b1-4)Gal(b1-4)Glc
# Procedure, shortened: as §1
# [23] = molecular target: Gal(b1-3)GalNAc(b1-4)[Neu5Ac(a2-3)]Gal(b1-4)Glc
# Procedure, shortened: as §1
# Gal(b1-3)GlcNAc = molecular target: Gal(b1-3)GlcNAc
# Procedure, shortened: as §1
# [24] = molecular target: Gal(b1-3)GlcNAc(b1-2)Man(a1-3)[Gal(b1-3)GlcNAc(b1-2)Man(a1-6)]Man(b1-4)GlcNAc(b1-4)GlcNAc
# Procedure, shortened: as §1
# [25] = molecular target: Gal(b1-3)GlcNAc(b1-2)Man(a1-3)[Gal(b1-3)GlcNAc(b1-2)Man(a1-6)]Man(b1-4)GlcNAc(b1-4)[Fuc(a1-6)]GlcNAc
# Procedure, shortened: as §1
# [26] = molecular target: Gal(b1-3)GlcNAc(b1-3)Gal(b1-3)GlcNAc
# Procedure, shortened: as §1
# [27] = molecular target: Gal(b1-3)GlcNAc(b1-3)Gal(b1-4)Glc
# Procedure, shortened: as §1
# [28] = molecular target: Gal(b1-3)GlcNAc(b1-3)Gal(b1-4)GlcNAc
# Procedure, shortened: as §1
binder,measurement,setting,value
B1,glycan array binding signal (z-score),[1],-0.368
same,glycan array binding signal (z-score),[2],-0.095
same,glycan array binding signal (z-score),[3],0.065
same,glycan array binding signal (z-score),[4],-0.567
same,glycan array binding signal (z-score),[5],-0.467
same,glycan array binding signal (z-score),[6],-0.542
same,glycan array binding signal (z-score),[7],0.458
same,glycan array binding signal (z-score),[8],-0.264
same,glycan array binding signal (z-score),[9],1.17
same,glycan array binding signal (z-score),[10],-0.088
same,glycan array binding signal (z-score),[11],-0.386
same,glycan array binding signal (z-score),[12],-0.561
same,glycan array binding signal (z-score),[13],0.526
same,glycan array binding signal (z-score),Fuc(a1-4)GlcNAc,-0.148
same,glycan array binding signal (z-score),Fuc(b1-3)GlcNAc,-0.537
same,glycan array binding signal (z-score),Gal(a1-2)Gal,0.419
same,glycan array binding signal (z-score),Gal(a1-3)Gal,-0.484
same,glycan array binding signal (z-score),Gal(a1-3)Gal(b1-3)GlcNAc,-0.405
same,glycan array binding signal (z-score),Gal(a1-3)Gal(b1-4)Glc,-0.17
same,glycan array binding signal (z-score),Gal(a1-3)Gal(b1-4)GlcNAc,0.407
same,glycan array binding signal (z-score),[14],0.42
same,glycan array binding signal (z-score),[15],-0.369
same,glycan array binding signal (z-score),Gal(a1-3)GalNAc,-0.301
same,glycan array binding signal (z-score),[16],0.667
same,glycan array binding signal (z-score),Gal(a1-4)Gal(b1-4)Glc,-0.165
same,glycan array binding signal (z-score),Gal(a1-4)Gal(b1-4)GlcNAc,-0.54
same,glycan array binding signal (z-score),[17],-0.181
same,glycan array binding signal (z-score),Gal(a1-4)GlcNAc,-0.49
same,glycan array binding signal (z-score),Gal(a1-6)Glc,-0.065
same,glycan array binding signal (z-score),Gal(b1-2)Gal,-0.539
same,glycan array binding signal (z-score),Gal(b1-3)Gal,0.235
same,glycan array binding signal (z-score),Gal(b1-3)Gal(b1-4)GlcNAc,0.427
same,glycan array binding signal (z-score),[18],-0.545
same,glycan array binding signal (z-score),Gal(b1-3)GalNAc,-0.173
same,glycan array binding signal (z-score),[19],-0.217
same,glycan array binding signal (z-score),[20],-0.518
same,glycan array binding signal (z-score),[21],-0.515
same,glycan array binding signal (z-score),[22],-0.314
same,glycan array binding signal (z-score),[23],1.48
same,glycan array binding signal (z-score),Gal(b1-3)GlcNAc,-0.501
same,glycan array binding signal (z-score),[24],-0.372
same,glycan array binding signal (z-score),[25],2.04
same,glycan array binding signal (z-score),[26],0.129
same,glycan array binding signal (z-score),[27],-0.498
same,glycan array binding signal (z-score),[28],0.195
